Where a chain is given by its changes, count along the chain named. The list shows a part of the results.
T1: RBFOX1 RRM (Homo sapiens, UniProt Q9NWB1 109-208)
T1 sequence: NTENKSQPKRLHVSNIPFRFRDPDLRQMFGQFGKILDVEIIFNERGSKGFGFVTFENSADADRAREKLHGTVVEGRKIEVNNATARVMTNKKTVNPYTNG

B1: CCAACAC (DNA:RNA)
RNA: GGGAGACCGGAAUUCAGAUUGUCCCCAACACUUAAAUCCCGUCGUAGCCACCA
DNA 1: CAATCTGAATTCCGGTCTCCC
DNA 2: TGGTGGCTACGACGGGATT
B2: ACUUUUA (DNA:RNA)
RNA: B1 RNA with C25A, A27U, A28U, C29U, A30U, C31A
DNA 1: CAATCTGAATTCCGGTCTCCC
DNA 2: TGGTGGCTACGACGGGATT
B3: ACUAGCC (DNA:RNA)
RNA: B1 RNA with C25A, A27U, C29G, A30C
DNA 1: CAATCTGAATTCCGGTCTCCC
DNA 2: TGGTGGCTACGACGGGATT
B4: CUAUGCC (DNA:RNA)
RNA: B1 RNA with C26U, A28U, C29G, A30C
DNA 1: CAATCTGAATTCCGGTCTCCC
DNA 2: TGGTGGCTACGACGGGATT
B5: GCAGGUU (DNA:RNA)
RNA: B1 RNA with C25G, A28G, C29G, A30U, C31U
DNA 1: CAATCTGAATTCCGGTCTCCC
DNA 2: TGGTGGCTACGACGGGATT
B6: CUGUUGU (DNA:RNA)
RNA: B1 RNA with C26U, A27G, A28U, C29U, A30G, C31U
DNA 1: CAATCTGAATTCCGGTCTCCC
DNA 2: TGGTGGCTACGACGGGATT
B7: CGACGUC (DNA:RNA)
RNA: B1 RNA with C26G, A28C, C29G, A30U
DNA 1: CAATCTGAATTCCGGTCTCCC
DNA 2: TGGTGGCTACGACGGGATT
B8: CACGAUC (DNA:RNA)
RNA: B1 RNA with C26A, A27C, A28G, C29A, A30U
DNA 1: CAATCTGAATTCCGGTCTCCC
DNA 2: TGGTGGCTACGACGGGATT
B9: GGUGGAU (DNA:RNA)
RNA: B1 RNA with C25G, C26G, A27U, A28G, C29G, C31U
DNA 1: CAATCTGAATTCCGGTCTCCC
DNA 2: TGGTGGCTACGACGGGATT
B10: GCCUUUC (DNA:RNA)
RNA: B1 RNA with C25G, A27C, A28U, C29U, A30U
DNA 1: CAATCTGAATTCCGGTCTCCC
DNA 2: TGGTGGCTACGACGGGATT
B11: UGCUCUC (DNA:RNA)
RNA: B1 RNA with C25U, C26G, A27C, A28U, A30U
DNA 1: CAATCTGAATTCCGGTCTCCC
DNA 2: TGGTGGCTACGACGGGATT
B12: GGAACAG (DNA:RNA)
RNA: B1 RNA with C25G, C26G, C31G
DNA 1: CAATCTGAATTCCGGTCTCCC
DNA 2: TGGTGGCTACGACGGGATT
B13: CAUUGUG (DNA:RNA)
RNA: B1 RNA with C26A, A27U, A28U, C29G, A30U, C31G
DNA 1: CAATCTGAATTCCGGTCTCCC
DNA 2: TGGTGGCTACGACGGGATT
B14: CACGUCA (DNA:RNA)
RNA: B1 RNA with C26A, A27C, A28G, C29U, A30C, C31A
DNA 1: CAATCTGAATTCCGGTCTCCC
DNA 2: TGGTGGCTACGACGGGATT
B15: UGCGCCC (DNA:RNA)
RNA: B1 RNA with C25U, C26G, A27C, A28G, A30C
DNA 1: CAATCTGAATTCCGGTCTCCC
DNA 2: TGGTGGCTACGACGGGATT
B16: CCCUAGU (DNA:RNA)
RNA: B1 RNA with A27C, A28U, C29A, A30G, C31U
DNA 1: CAATCTGAATTCCGGTCTCCC
DNA 2: TGGTGGCTACGACGGGATT
B17: GCGCGUA (DNA:RNA)
RNA: B1 RNA with C25G, A27G, A28C, C29G, A30U, C31A
DNA 1: CAATCTGAATTCCGGTCTCCC
DNA 2: TGGTGGCTACGACGGGATT
B18: UAUUCCA (DNA:RNA)
RNA: B1 RNA with C25U, C26A, A27U, A28U, A30C, C31A
DNA 1: CAATCTGAATTCCGGTCTCCC
DNA 2: TGGTGGCTACGACGGGATT
B19: AGAGUUC (DNA:RNA)
RNA: B1 RNA with C25A, C26G, A28G, C29U, A30U
DNA 1: CAATCTGAATTCCGGTCTCCC
DNA 2: TGGTGGCTACGACGGGATT
B20: CAAACAC (DNA:RNA)
RNA: B1 RNA with C26A
DNA 1: CAATCTGAATTCCGGTCTCCC
DNA 2: TGGTGGCTACGACGGGATT
B21: CGGACGU (DNA:RNA)
RNA: B1 RNA with C26G, A27G, A30G, C31U
DNA 1: CAATCTGAATTCCGGTCTCCC
DNA 2: TGGTGGCTACGACGGGATT
B22: AGCCCAU (DNA:RNA)
RNA: B1 RNA with C25A, C26G, A27C, A28C, C31U
DNA 1: CAATCTGAATTCCGGTCTCCC
DNA 2: TGGTGGCTACGACGGGATT
B23: UAGUCGG (DNA:RNA)
RNA: B1 RNA with C25U, C26A, A27G, A28U, A30G, C31G
DNA 1: CAATCTGAATTCCGGTCTCCC
DNA 2: TGGTGGCTACGACGGGATT
B24: CUACCCG (DNA:RNA)
RNA: B1 RNA with C26U, A28C, A30C, C31G
DNA 1: CAATCTGAATTCCGGTCTCCC
DNA 2: TGGTGGCTACGACGGGATT
B25: CCAACCA (DNA:RNA)
RNA: B1 RNA with A30C, C31A
DNA 1: CAATCTGAATTCCGGTCTCCC
DNA 2: TGGTGGCTACGACGGGATT
B26: GCCCAUA (DNA:RNA)
RNA: B1 RNA with C25G, A27C, A28C, C29A, A30U, C31A
DNA 1: CAATCTGAATTCCGGTCTCCC
DNA 2: TGGTGGCTACGACGGGATT
B27: UUUUCAU (DNA:RNA)
RNA: B1 RNA with C25U, C26U, A27U, A28U, C31U
DNA 1: CAATCTGAATTCCGGTCTCCC
DNA 2: TGGTGGCTACGACGGGATT
B28: GCUCUAA (DNA:RNA)
RNA: B1 RNA with C25G, A27U, A28C, C29U, C31A
DNA 1: CAATCTGAATTCCGGTCTCCC
DNA 2: TGGTGGCTACGACGGGATT
B29: AUGUUGA (DNA:RNA)
RNA: GGGAGACCGGAAUUCAGAUUGUCCAUGUUGAUUAAAUCCCGUCGUAGCCACCA
DNA 1: CAATCTGAATTCCGGTCTCCC
DNA 2: TGGTGGCTACGACGGGATT
B30: UACUGAA (DNA:RNA)
RNA: B29 RNA with A25U, U26A, G27C, U29G, G30A
DNA 1: CAATCTGAATTCCGGTCTCCC
DNA 2: TGGTGGCTACGACGGGATT
B31: UCCUACA (DNA:RNA)
RNA: B29 RNA with A25U, U26C, G27C, U29A, G30C
DNA 1: CAATCTGAATTCCGGTCTCCC
DNA 2: TGGTGGCTACGACGGGATT

Molecular target: T1, RBFOX1 RRM
Assay: EMSA; HiTS-Eq, 1 nM pool, 10 min; buffer printed only for the single-RNA assays: 10 mM Tris pH 7.5, 150 mM NaCl, 3.4 mM EDTA, 0.001% NP-40, 30 C
Details: tags: His6 N-terminal (pET28a); label: 5' 32P
Outline: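 Purified RbFox RRM (wild type or mutant) was equilibrated for 10 min in 50 µL with 1 nM of a 5′-radiolabelled pool of RNA with 7 randomized nucleotides, its flanks annealed to DNA oligonucleotides, across increasing protein concentrations. Free RNA was separated by 8% native PAGE, excised, reverse-transcribed, PCR-barcoded and sequenced on an Illumina HiSeq 2500. Relative association constants came from read-count changes of each variant against the control reaction, normalised to the cognate motif.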

| Binder | binding signal |
| --- | --- |
| B1 | 0.00438 KA relative to UGCAUGU |
| B2 | 0.00147 KA relative to UGCAUGU |
| B3 | 0.00569 KA relative to UGCAUGU |
| B4 | 0.0111 KA relative to UGCAUGU |
| B5 | 0.0151 KA relative to UGCAUGU |
| B6 | 0.0226 KA relative to UGCAUGU |
| B7 | 0.00509 KA relative to UGCAUGU |
| B8 | 0.00473 KA relative to UGCAUGU |
| B9 | 0.0111 KA relative to UGCAUGU |
| B10 | 0.0185 KA relative to UGCAUGU |
| B11 | 0.0211 KA relative to UGCAUGU |
| B12 | 0.0101 KA relative to UGCAUGU |
| B13 | 0.0157 KA relative to UGCAUGU |
| B14 | 0.00142 KA relative to UGCAUGU |
| B15 | 0.00933 KA relative to UGCAUGU |
| B16 | 0.00573 KA relative to UGCAUGU |

| Binder | binding signal |
| --- | --- |
| B17 | 0.0146 KA relative to UGCAUGU |
| B18 | 0.00337 KA relative to UGCAUGU |
| B19 | 0.0124 KA relative to UGCAUGU |
| B20 | 0.000671 KA relative to UGCAUGU |
| B21 | 0.0196 KA relative to UGCAUGU |
| B22 | 0.00201 KA relative to UGCAUGU |
| B23 | 0.0122 KA relative to UGCAUGU |
| B24 | 0.00255 KA relative to UGCAUGU |
| B25 | 0.00186 KA relative to UGCAUGU |
| B26 | 0.00463 KA relative to UGCAUGU |
| B27 | 0.0103 KA relative to UGCAUGU |
| B28 | 0.00896 KA relative to UGCAUGU |
| B29 | 0.0231 KA relative to UGCAUGU |
| B30 | 0.0144 KA relative to UGCAUGU |
| B31 | 0.00176 KA relative to UGCAUGU |
